assay: soluble on expression in E. coli; label from the status in PepcDB or PDB records

| Sequence | soluble on expression in E. coli |
| --- | --- |
| MGSDKIHHHHHHMITIKKGLDLPITGGPEQVIHNGPAIKHVATLGEEYIGLRPTMKIKVGDKVQKGQVIFEDKKNPGVKYTALASGTISEINRGAQRVLQSVVIEVEGDDSVSFAKYDAAALDTLEPQLVRDNLIESGMWPALRTRPFSKAPAVDSTPAGIFVTAIDTQPLAADPAVIINEHKEDFANGLRVLARLTEGKVYLCKAPGADIPAANAQVEEFAGPHPAGLAGTHIHFVLPASAKRTVWHVGYQDVIAIGQLFTTGELNTQRVVAIAGPKALKPRLVRTHSGASIAELTAGETAQGDVRVIAGSVLSGKTATGPHAYLGRFFNQVSLLEEGREQEFIGWAMPGANKFSITRAFLGHLSPSRLFNMTTSTGGSDRAMVPIGNYERVMPLDILPTMLLRDLVSGDTDGAAALGALELDEEDLALCTFVCPGKYDYASYLRDCLDTIVREG | not soluble |
| MHYPEPLSKLIDSFMKLPGIGPKTAARLAFHVLAMKEDTVLEFAKALVDVKRHIHYCTICGHITDTDPCYICKDERRDRTTICVVQDPKDVIAMERMKEYNGLYHVLHGAISPMEGIGPEDIKIAELLTRLQDETVQEVILATDPNIEGEATAMYISRLLKPTGIKVTRIAHGLPVGGDLEYADEVTLSKALEGRREL | soluble |
| MSNLRLQKRLASAVLKCGKHRVWLDPNEVSEISGANSRQSIRRLVNDGLIIRKPVTVHSRFRAREYEEARRKGRHTGYGKRRGTANARMPEKTLWIRRMRVLRNLLRRYRDAKKLDKHLYHELYLRAKGNNFKNKKNLIEYIFKKKTENKRAKQLADQAQARRDKNKESRKRREERQVVKRAELLRKISQSEKVIAGK | soluble |
| NALKTPEKLQQAALPIVSEADCKKSWGSKITDVMTCAGASGVDSCMGDSGGPLVCQKDGVWTLAGIVSWGSGVCSTSTPGVYSRVTALMPWVQQILEAN | soluble |
| QVQLVESGGGVVQPGRSLRLSCAASGFTFSSYGMHWVRQAPGKGLEWVAVISYDGSNKYYADSVKGRFTISRDNSKNTLYLQMNSLRAEDTAVYYCAKDGKCAGGSCYSGLLDYWGQGTLVTVSSASFKGPSVFPLAPSSKSTSGGTAALGCLVKDYFPEPVTVSWNSGALTSGVHTFPAVLQSSGLYSLSSVVTVPSSSLGTQTYICNVNHKPSNTKVDKKVEPKSCDKTHTGLEHHHHHH | soluble |
